Not every detail of the peptide structures is certain; ends, links or a residue may be inferred. Ends that are not written are not given here. Peptide text beside a SMILES is read from it.
Legend:
[1] = tested on: Escherichia coli; assay: Antimicrobial activity test: rate of inhibition of E. coli proliferation (turbidity); assay type: cell-based; conditions: 16 hours at 37° C.
Method: One platinum loop was collected from a stock slant of Escherichia coli, streaked on a standard agar medium (manufactured by Nissui Pharmaceutical Co.) and incubated under aerobic conditions for 16 hours at 37° C., the colonies which grew on the surface of the standard agar medium were collected using a platinum loop, suspended in sterilized physiological saline solution, the turbidity was measured using a spectrophotometer (manufactured by Hitachi Manufacturing Co.) and adjusted to 0.1 (O.D.; 660 nm) and a pre-incubation solution was prepared.
Bactocasitone (manufactured by Difco Laboratory Co.) was dissolved at a concentration of 1% in purified water, the pH was adjusted to 7.0 with 1M sodium hydroxide, the solution was sterilized at 115° C. for 15 minutes and a basal medium (liquid medium) was prepared. […]
The percentages of the rate of inhibition of proliferation are not in weight (same hereinafter).

[2] = Preservative effect in pasteurized milk: days required for the milk to solidify; conditions: 30 μM in pasteurized milk, held at 25° C.; control solidified in two days
[3] = tested on: Listeria monocytogenes IDF 1b; assay: Antimicrobial spectrum, minimum inhibitory concentration (LM); assay type: cell-based; conditions: peptone medium, 10^6 /ml, 17 hours at 37° C.
[4] = tested on: Staphylococcus aureus JCM 2151; assay: Antimicrobial spectrum, minimum inhibitory concentration (SA); assay type: cell-based; conditions: peptone medium, 10^6 /ml, 17 hours at 37° C.
[5] = tested on: bacteria on primary-processed vegetable (cut vegetable); assay: Viable count on cut vegetable immersed in antimicrobial peptide solution; conditions: vegetable immersed 30 seconds in 20 μM peptide, held at 5° C.

Compound	inhibitory rate (rate of inhibition of proliferation) ([1]; added quantity 0.5 μM)	inhibitory rate (rate of inhibition of proliferation) ([1]; added quantity 1 μM)	inhibitory rate (rate of inhibition of proliferation) ([1]; added quantity 2 μM)	inhibitory rate (rate of inhibition of proliferation) ([1]; added quantity 5 μM)	inhibitory rate (rate of inhibition of proliferation) ([1]; added quantity 10 μM)	inhibitory rate (rate of inhibition of proliferation) ([1]; added quantity 20 μM)	inhibitory rate (rate of inhibition of proliferation) ([1]; added quantity 60 μM)	inhibitory rate (rate of inhibition of proliferation) ([1]; added quantity 100 μM)	inhibitory rate (rate of inhibition of proliferation) ([1]; added quantity 200 μM)	number of days required for the milk to solidify [2]	Minimum inhibitory concentration (MIC), LM [3]	Minimum inhibitory concentration (MIC), SA [4]	Viable count/g ([5]; 0 hr.)	Viable count/g ([5]; 22 hrs.)	Viable count/g ([5]; 24 hrs.)	Viable count/g ([5]; 36 hrs.)
N=C(N)NCCC[C@H](NC(=O)[C@H](CCC(N)=O)NC(=O)[C@H](Cc1c[nH]c2ccccc12)NC(=O)[C@@H](N)CCC(N)=O)C(=O)O [Sample No. 3, Gln-Trp-Gln-Arg] (H-QWQR-OH)	0%	5%	11%	35%	63%	83%	98%	100%	100%	–	–	–	–	–	–	–
N=C(N)NCCC[C@H](NC(=O)[C@H](CCC(N)=O)NC(=O)[C@@H](N)Cc1c[nH]c2ccccc12)C(=O)O [Sample No. 4, Trp-Gln-Arg] (H-Trp-Gln-Arg-OH)	0%	0%	8%	30%	58%	77%	92%	100%	100%	–	–	–	–	–	–	–
N=C(N)NCCC[C@H](NC(=O)[C@@H](N)CCCNC(=N)N)C(=O)N[C@@H](Cc1c[nH]c2ccccc12)C(=O)N[C@@H](CCC(N)=O)C(=O)O [Sample No. 6, Arg-Arg-Trp-Gln] (H-RRWQ-OH)	0%	32%	75%	88%	98%	100%	100%	100%	100%	ten	–	–	–	–	–	–
N=C(N)NCCC[C@H](NC(=O)[C@H](Cc1c[nH]c2ccccc12)NC(=O)[C@@H](N)CCC(N)=O)C(=O)O [Sample No. 8, Gln-Trp-Arg] (H-Gln-Trp-Arg-OH)	0%	8%	40%	72%	84%	93%	100%	100%	100%	–	–	–	–	–	–	–
CC(C)C[C@H](N)C(=O)N[C@@H](CCCNC(=N)N)C(=O)N[C@@H](Cc1c[nH]c2ccccc12)C(=O)N[C@@H](CCC(N)=O)C(=O)O [Sample No. 11, Leu-Arg-Trp-Gln] (H-LRWQ-OH)	0%	4%	10%	40%	67%	85%	100%	100%	100%	–	–	–	–	–	–	–
N=C(N)NCCC[C@H](N)C(=O)N[C@@H](Cc1c[nH]c2ccccc12)C(=O)N[C@@H](CCC(N)=O)C(=O)O [Sample No. 12, Arg-Trp-Gln] (H-Arg-Trp-Gln-OH)	0%	3%	6%	25%	48%	79%	100%	100%	100%	–	–	–	–	–	–	–
FQWQR [Sample No. 2, Phe-Gln-Trp-Gln-Arg]	0%	3%	14%	40%	72%	92%	100%	100%	100%	–	–	–	–	–	–	–
FQWQRN [Sample No. 1, Phe-Gln-Trp-Gln-Arg-Asn]	0%	13%	20%	45%	88%	94%	100%	100%	100%	–	100 µM	250 µM	–	–	–	–
FQWQRN-NH2 [Sample No. 16, Phe-Gln-Trp-Gln-Arg-Asn-NH2]	–	–	–	–	–	–	–	–	–	–	50 µM	100 µM	–	–	–	–
LRWQN [Sample No. 10, Leu-Arg-Trp-Gln-Asn]	0%	11%	31%	75%	88%	100%	100%	100%	100%	–	–	–	–	–	–	–
LRWQND [Sample No. 9, Leu-Arg-Trp-Gln-Asn-Asp]	0%	32%	51%	79%	89%	100%	100%	100%	100%	–	–	–	–	–	–	–
RRWQW [Sample No. 5, Arg-Arg-Trp-Gln-Trp]	0%	59%	83%	94%	100%	100%	100%	100%	100%	–	–	–	1300 g⁻¹	1600 g⁻¹	2000 g⁻¹	230000 g⁻¹
